Measured values from the supplement of paper PMC4967469.
A lower IC50 marks a more sensitive line; where the fit passes the top or lowest dose, that dose stands as a limit. AUC, from the same fit, is the share of area under the viability curve across the 256-fold dose range; values near 1 show little effect. For part of these data: Any top dose called inferred comes from the curve model; the source does not state it.

Key:
Assay in all cases: Viability of human cancer cell lines after 72 h of drug (GDSC screen)
Z-LLNle-CHO = compound: CCCC[C@@H](C=O)NC(=O)[C@H](CC(C)C)NC(=O)[C@H](CC(C)C)NC(=O)OCc1ccccc1 [Z-LLNle-CHO]; details: top dose 2.56 µM; top dose inferred
Protocol: (§1)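 Human cancer cell lines in 384-well plates, medium with 10% serum, drug for 72 h over a 256-fold dose range (nine 2-fold or five 4-fold steps up to the top dose). Adherent lines were fixed and stained with the nucleic acid dye Syto60, suspension lines read with resazurin; signal relative to control wells, capped at 0 and 100%. One two-parameter sigmoid per drug and line, fitted in a mixed model over all curves with the slope shared within a line.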

JW-7-52-1 = compound: CCC(=O)N1CCN(c2ccc(-n3c(=O)ccc4cnc5ccc(-c6cnc7ccccc7c6)cc5c43)cc2C(F)(F)F)CC1 [JW-7-52-1]; details: top dose 1.2 µM; top dose inferred
Protocol: as §1

XL-880 = compound: COc1cc2c(Oc3ccc(NC(=O)C4(C(=O)Nc5ccc(F)cc5)CC4)cc3F)ccnc2cc1OCCCN1CCOCC1 [XL-880]; details: top dose 5.12 µM; top dose inferred
Protocol: as §1

Tubastatin A = compound: CN1CCc2c(c3ccccc3n2Cc2ccc(C(=O)NO)cc2)C1 [Tubastatin A]; details: top dose 20 µM
Protocol: as §1

Temozolomide = compound: Cn1nnc2c(C(N)=O)ncn2c1=O [Temozolomide]; details: top dose 30 µM
Protocol: as §1

IPA-3 = compound: Oc1ccc2ccccc2c1SSc1c(O)ccc2ccccc12 [IPA-3]; details: top dose 32 µM; top dose inferred
Protocol: as §1

CI-1040 = compound: O=C(NOCC1CC1)c1ccc(F)c(F)c1Nc1ccc(I)cc1Cl [CI-1040]; details: top dose 10 µM; top dose inferred
Protocol: as §1

ZG-10 = compound: CN(C)C/C=C/C(=O)Nc1ccc(C(=O)Nc2cccc(Nc3nccc(-c4cccnc4)n3)c2)cc1 [ZG-10]; details: top dose 10 µM; top dose inferred
Protocol: as §1

Rapamycin = compound: CO[C@H]1C[C@@H]2CC[C@@H](C)[C@@](O)(O2)C(=O)C(=O)N2CCCC[C@H]2C(=O)O[C@H]([C@H](C)C[C@@H]2CC[C@@H](O)[C@H](OC)C2)CC(=O)[C@H](C)/C=C(\C)[C@@H](O)[C@@H](OC)C(=O)[C@H](C)C[C@H](C)/C=C/C=C/C=C/1C [Rapamycin]; details: top dose 0.1 µM; top dose inferred
Protocol: as §1

Cell Line | AUC (Z-LLNle-CHO) | IC50 (Z-LLNle-CHO) [µM] | AUC (JW-7-52-1) | IC50 (JW-7-52-1) [µM] | AUC (XL-880) | IC50 (XL-880) [µM] | AUC (Tubastatin A) | IC50 (Tubastatin A) [µM] | AUC (Temozolomide) | IC50 (Temozolomide) [µM] | AUC (IPA-3) | IC50 (IPA-3) [µM] | AUC (CI-1040) | IC50 (CI-1040) [µM] | AUC (ZG-10) | IC50 (ZG-10) [µM] | AUC (Rapamycin) | IC50 (Rapamycin) [µM]
ALL-SIL (T-cell leukaemia, suspension) | 0.783 | 0.926 | 0.526 | 0.0875 | 0.28 | 0.085 | 0.796 | 7.9 | 0.957 | > 30 | 0.578 | 3.17 | 0.929 | > 10 | 0.516 | 0.685 | 0.866 | 0.0691
SHP-77 (small cell lung carcinoma, semi-adherent) | 0.875 | 2.07 | 0.893 | 1.16 | 0.707 | 1.14 | 0.948 | > 20 | 0.991 | > 30 | 0.953 | > 32 | 0.979 | > 10 | 0.837 | 5.72 | 0.986 | > 0.1
HSC-39 (stomach, suspension) | 0.9 | 2.48 | 0.796 | 0.475 | 0.974 | > 5.12 | 0.864 | 13.6 | 0.991 | > 30 | 0.989 | > 32 | 0.956 | > 10 | 0.816 | 4.58 | 0.991 | > 0.1
MDST8 (large intestine, adherent) | 0.947 | > 2.56 | 0.629 | 0.17 | 0.677 | 0.992 | 0.983 | > 20 | 0.986 | > 30 | 0.903 | > 32 | 0.576 | 1.01 | 0.703 | 2.32 | 0.919 | > 0.1
NB14 (neuroblastoma, adherent) | 0.961 | > 2.56 | 0.986 | > 1.2 | 0.391 | 0.164 | 0.986 | > 20 | 0.988 | > 30 | 0.529 | 2.39 | 0.877 | 9 | 0.594 | 1.11 | 0.927 | > 0.1
SJSA-1 (bone, adherent) | 0.851 | 2.35 | 0.444 | 0.0516 | 0.662 | 0.962 | 0.957 | > 20 | 0.982 | > 30 | 0.827 | 23 | 0.855 | 9.69 | 0.837 | 7.92 | 0.76 | 0.0394
GT3TKB (stomach, adherent) | 0.773 | 0.878 | 0.576 | 0.118 | 0.819 | 2.47 | 0.984 | > 20 | 0.981 | > 30 | 0.781 | 11.7 | 0.885 | 8.71 | 0.482 | 0.563 | 0.976 | > 0.1
SK-PN-DW (Ewing sarcoma, adherent) | 0.801 | 1.31 | 0.456 | 0.0566 | 0.416 | 0.187 | 0.817 | 11.8 | 0.968 | > 30 | 0.742 | 10.2 | 0.906 | > 10 | 0.743 | 3.2 | 0.609 | 0.0126
NCI-H1876 (small cell lung carcinoma, adherent) | 0.887 | > 2.56 | 0.702 | 0.28 | 0.687 | 1.08 | 0.952 | > 20 | 0.961 | > 30 | 0.969 | > 32 | 0.813 | 5.49 | 0.628 | 1.42 | 0.937 | > 0.1
A253 (head and neck, adherent) | 0.757 | 0.86 | 0.821 | 0.67 | 0.845 | 3.54 | 0.987 | > 20 | 0.951 | > 30 | 0.801 | 15.1 | 0.934 | > 10 | 0.837 | 6.45 | 0.988 | > 0.1
OCI-LY-19 (B-cell lymphoma, suspension) | 0.78 | 0.972 | 0.52 | 0.0846 | 0.415 | 0.191 | 0.826 | 10.8 | 0.986 | > 30 | 0.767 | 11 | 0.717 | 2.42 | 0.696 | 2.11 | 0.868 | 0.0791
COLO-800 (melanoma, adherent) | 0.987 | > 2.56 | 0.988 | > 1.2 | 0.802 | 2.44 | 0.963 | > 20 | 0.981 | > 30 | 0.968 | > 32 | 0.957 | > 10 | 0.412 | 0.361 | 0.871 | 0.0894
NCI-H1436 (small cell lung carcinoma, suspension) | 0.974 | > 2.56 | 0.962 | > 1.2 | 0.681 | 1.11 | 0.972 | > 20 | 0.984 | > 30 | 0.954 | > 32 | 0.974 | > 10 | 0.574 | 1.03 | 0.959 | > 0.1
ES7 (Ewing sarcoma, adherent) | 0.942 | > 2.56 | 0.881 | > 1.2 | 0.256 | 0.0625 | 0.8 | 9.95 | 0.982 | > 30 | 0.828 | 20.5 | 0.879 | > 10 | 0.593 | 1.13 | 0.981 | > 0.1
